Assay results: PubChem BioAssay AID602310 (National Center for Advancing Translational Sciences (NCATS), 2012)
“And” between values parts separate entries of the source, which are not always exact repeats. Equal values may be shown once. Out of some 410,000 compounds screened, about 310 (0.076%) were called active. Inconclusive results, whose numbers are uncertain, are shown with a selection of clear calls. Calls come from the whole dose curve; as a rule, active = well fitted curve in the direction sought with a large enough effect; inconclusive = small, poorly fitted or top-dose-only effect; inactive = flat fitted curve, though single readings scatter. A potency beside an inconclusive call is a rough fit, not a confirmed value.

Molecular target: DNA dC->dU-editing enzyme APOBEC-3G (Homo sapiens) (UniProt Q9HC16)
Chain of UniProt Q9HC16 (Q9HC16 whole entry, looked up): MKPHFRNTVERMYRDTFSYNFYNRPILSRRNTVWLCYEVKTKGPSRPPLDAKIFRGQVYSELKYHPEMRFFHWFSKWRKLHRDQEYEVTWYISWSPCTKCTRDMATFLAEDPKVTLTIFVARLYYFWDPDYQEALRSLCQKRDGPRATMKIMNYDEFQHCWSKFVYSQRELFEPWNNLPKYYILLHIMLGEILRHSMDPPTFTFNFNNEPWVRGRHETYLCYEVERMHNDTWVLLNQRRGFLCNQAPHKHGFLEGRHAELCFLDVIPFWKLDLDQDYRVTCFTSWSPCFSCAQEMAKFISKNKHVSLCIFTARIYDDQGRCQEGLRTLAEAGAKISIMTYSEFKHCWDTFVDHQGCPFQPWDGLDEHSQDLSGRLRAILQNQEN
Experiment: qHTS for Inhibitors of Vif-A3G Interactions: qHTS; note: nearly all actives have a fitted effect of over 60% in size
Conditions: HeLa A3G-eYFP + Vif (tagged APOBEC3G with the HIV-1 protein that degrades it), YFP fluorescence, overnight; series mostly up to 46.1 µM
How it was run: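 HeLa cells stably expressing Vif and C-terminally eYFP-tagged A3G, seeded overnight at 37 deg C, then exposed to compound by pintool overnight at 37 deg C. Rise in yellow fluorescence (Ex 488/Em 500-530, Acumen) marks blocked Vif-driven A3G degradation.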
Potency is the fitted concentration of half-maximal effect; tags give direction and shape of the fitted curve.

SMILES	Potency
O=C(Cc1c(F)c(F)c(F)c(F)c1F)Nc1nc(-c2ccccc2)cs1	inactive
CCOC(=O)c1noc2ncnc(N3CCN(c4ccccc4OC)CC3)c12	inconclusive: 3.16 µM [inhibitor, full curve, poor fit]
CC(=O)c1sc(N/N=C\c2cccc(Br)c2)nc1C	inconclusive: 20 µM [inhibitor, single point]
CC1c2cc3c(cc2CCN1C(=O)c1cccc(Cl)c1)OCCCO3 (configuration not stated)	inconclusive: 4.47 µM [inhibitor, full curve, poor fit]
COc1cccc(Cn2c3ccc(NC(=O)Cc4cc(OC)ccc4OC)cc3c(=O)n2C)c1	inconclusive: 10 µM [inhibitor, partial curve, poor fit]
O=C(Nc1cccc(Br)c1)Oc1cccc2cccnc12	inconclusive: 11.2 µM [inhibitor, partial curve]
N#C/C(=C\c1ccc(N2CCOCC2)o1)c1ccccc1	inconclusive: 17.8 µM [inhibitor, partial curve, poor fit]
Cc1ccc(S(=O)(=O)c2nc(-c3ccccc3Cl)oc2N2CCN(C)CC2)cc1	inactive
COc1ccc(-c2cc(NC(C)=O)c3ncc(-c4ccc(F)cc4)n3c2)cc1OC	inconclusive: 28.2 µM [inhibitor, single point]
Cc1cccc(CNC(=O)c2cnc3sc(N4CCCCC4)nn3c2=O)c1	inactive
CCCOc1ccc(C2c3c(-c4ccccc4O)n[nH]c3C(=O)N2Cc2ccncc2)cc1OCC (configuration not stated)	inactive
CC(=O)NC(c1ccc(N(C)C)cc1)c1cc(Cl)c2cccnc2c1O (configuration not stated)	inconclusive: 12.6 µM [inhibitor, single point]
COc1ccc(C(=O)NCC(c2ccco2)N2CCc3ccccc32)cc1 (configuration not stated)	inconclusive: 2.24 µM [inhibitor, partial curve, poor fit]
Cc1nnc(NC(=O)c2nc(S(=O)(=O)Cc3ccccc3)ncc2Cl)s1	inconclusive: 20 µM [inhibitor, single point]
CCOC(=O)c1ccccc1Nc1cn(C(C)=O)c2ccccc12	inconclusive: 35.5 µM [inhibitor, single point]
COc1ccccc1-[n+]1c(C)cc(/C=C2\Sc3ccccc3N2C)cc1C	inconclusive: 3.16 µM [inhibitor, partial curve, poor fit]
COc1ccc([C@H]2C[C@H](O)[C@@H](n3cc(-c4ccc(F)cc4)nn3)CN2Cc2cccs2)cc1	inconclusive: 1.41 µM [inhibitor, partial curve, poor fit]
CCCc1nnc(NC(=O)c2nc(S(=O)(=O)Cc3ccc(C)cc3)ncc2Cl)s1	inconclusive: 17.8 µM [inhibitor, single point] and inconclusive: 20 µM [inhibitor, single point]
Cc1ccc(NC(=O)CSc2nc3ccccc3c3nc(CCn4c(C)nc5ccccc54)nn23)cc1F	inconclusive: 3.55 µM [inhibitor, single point]
COCCNC(=S)N/N=C/c1ccc(-c2ccc([N+](=O)[O-])cc2)o1	inconclusive: 11.2 µM [inhibitor, partial curve, poor fit]
CN(C)c1ccc(/C=C/c2ccnc3ccccc23)cc1Cl	inconclusive: 3.16 µM [inhibitor, full curve]

SMILES	Potency
Cc1cc(C)c2cc3c(N)c(C(=O)N4CCOCC4)sc3nc2c1	inactive
O=C(NCC1CC1)c1cc([N+](=O)[O-])cc([N+](=O)[O-])c1	inactive
O=C(COc1ccccc1)Nc1sc2c(c1C(=O)NCc1cccnc1)CCCC2	inconclusive: 35.5 µM [inhibitor, single point]
NC(=O)c1ccccc1NC(=S)NC(=O)CCc1ccccc1	inconclusive: 2.24 µM [inhibitor, full curve]
N=c1c(C(=O)NCCN2CCOCC2)cc2c(=O)n3ccccc3nc2n1CCc1ccccc1	inactive
O=c1c2ccccc2sn1-c1ccccc1F	inconclusive: 35.5 µM [inhibitor, partial curve, poor fit]
NC(Cc1ccccc1)c1csc(NC(=O)Nc2ccccc2Oc2ccccc2)n1 (configuration not stated)	inconclusive: 3.55 µM [inhibitor, partial curve, poor fit]
Cc1ccc(NNC2CC(=O)N(c3cccc(Cl)c3)C2=O)cc1 (configuration not stated)	inactive
N#Cc1ccc(-c2cccs2)nc1SCc1c(F)cccc1Cl	inconclusive: 1.26 µM [inhibitor, full curve, poor fit]
CCOC(=O)c1ccc(NC(=S)NCCC2=CCCCC2)cc1	inactive
Cc1occc1C(=O)N/N=C/C=C/c1ccc(N(C)C)cc1	inconclusive: 31.6 µM [inhibitor, single point]
COc1cccc(C2c3cc4c(cc3OC(C)(N3CCCC3)C2C)OCO4)c1O (configuration not stated)	inconclusive: 7.94 µM [inhibitor, partial curve]
Cn1c(=O)n(C/C=C/c2ccccc2)c(=O)c2c1nc1n2CCN1c1ccc(F)cc1	inactive
O=S(=O)(C/C(=C/CO)S(=O)(=O)c1ccccc1)c1ccccc1	inconclusive: 2.82 µM [inhibitor, full curve, poor fit]
Cn1cnc(Sc2ncnc3nc[nH]c23)c1[N+](=O)[O-]	inconclusive: 7.08 µM [inhibitor, full curve, poor fit]
O=C(c1cccs1)c1no[n+]([O-])c1C(=O)c1cccs1	inconclusive: 25.1 µM [inhibitor, single point]
CC(NC(=O)c1ccc2c(c1)N(Cc1cccc(F)c1)C(=O)c1ccccc1S2)c1ccccc1 (configuration not stated)	inactive
COc1ccc2[nH]c(C(=O)N/N=C/c3ccc(OC)c(O)c3)cc2c1	active: 2.51 µM
Cn1c(N/N=C/c2cc3ccccc3nc2Cl)nc2ccccc21	active: 11.2 µM
CCOc1ccc(-n2c(SCC(=O)Nc3cc(C)on3)nc3c(c2=O)SCC3)cc1	inactive
CCCOC(=O)/C(=C\c1ccc([N+](=O)[O-])o1)NC(=O)c1ccccc1	inconclusive: 20 µM [inhibitor, single point]
